# From the supplement of paper PMC8728848
# Some of the results follow.
# B1: RS2L (Ralstonia solanacearum), B5RXL5_RALSO (protein)
# chain: MAQQGVFTLPANTSFGVTAFANAANTQTIQVLVDNVVKATFTGSGTSDKLLGSQVLNSGSGAIKIQVSVNGKPSDLVSNQTILANKLNFAMVGSEDGTDNDYNDGIAVLNWPLG
# Columns and labels:
# Experiment in all cases: glycan array binding signal (z-score within array); higher = stronger binding
# Conditions in all cases: glycan notation: IUPAC condensed, linker removed
# [1] = biological target: Gal3S(b1-3)[Fuc(a1-4)]GlcNAc
# Method in brief: (§1)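 Columns mapping to the same glycan were averaged after glycan names were converted to IUPAC-condensed notation. The data come from 3228 arrays in the Consortium for Functional Glycomics database, limited to those with an available protein sequence. Binding is reported as a within-array Z-score averaged across arrays of one protein sequence and across linkers.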
# [2] = biological target: Gal3S(b1-4)Glc
# Method in brief: as §1
# [3] = biological target: Gal3S(b1-4)Glc6S
# Method in brief: as §1
# [4] = biological target: Gal3S(b1-4)GlcNAc
# Method in brief: as §1
# [5] = biological target: Gal3S(b1-4)GlcNAc6S
# Method in brief: as §1
# [6] = biological target: Gal3S(b1-4)[Fuc(a1-3)]Glc
# Method in brief: as §1
# [7] = biological target: Gal3S(b1-4)[Fuc(a1-3)]Glc6S
# Method in brief: as §1
# [8] = biological target: Gal3S4S(b1-4)GlcNAc
# Method in brief: as §1
# [9] = biological target: Gal3S6S(b1-4)GlcNAc
# Method in brief: as §1
# [10] = biological target: Gal3S6S(b1-4)GlcNAc6S
# Method in brief: as §1
# [11] = biological target: Gal4S(b1-4)GlcNAc
# Method in brief: as §1
# [12] = biological target: Gal4S6S(b1-4)GlcNAc
# Method in brief: as §1
# [13] = biological target: Gal6S(b1-3)GlcNAc
# Method in brief: as §1
# [14] = biological target: Gal6S(b1-3)GlcNAc6S
# Method in brief: as §1
# [15] = biological target: Gal6S(b1-4)Glc
# Method in brief: as §1
# [16] = biological target: Gal6S(b1-4)Glc6S
# Method in brief: as §1
# [17] = biological target: Gal6S(b1-4)GlcNAc
# Method in brief: as §1
# [18] = biological target: Gal6S(b1-4)GlcNAc6S
# Method in brief: as §1
# [19] = biological target: GalNAc(a1-3)Gal
# Method in brief: as §1
# [20] = biological target: GalNAc(a1-3)GalNAc
# Method in brief: as §1
# [21] = biological target: GalNAc(a1-3)GalNAc(b1-3)Gal(a1-4)Gal(b1-4)Glc
# Method in brief: as §1
# [22] = biological target: GalNAc(a1-3)GalNAc(b1-3)Gal(a1-4)Gal(b1-4)GlcNAc
# Method in brief: as §1
# [23] = biological target: GalNAc(b1-3)Gal
# Method in brief: as §1
# [24] = biological target: GalNAc(b1-3)Gal(a1-4)Gal(b1-4)GlcNAc
# Method in brief: as §1
# [25] = biological target: GalNAc(b1-3)Gal(a1-4)Gal(b1-4)GlcNAc(b1-3)Gal(b1-4)Glc
# Method in brief: as §1
# [26] = biological target: GalNAc(b1-3)Gal(a1-6)Gal(b1-4)Glc
# Method in brief: as §1
# [27] = biological target: GalNAc(b1-3)GalNAc
# Method in brief: as §1
# [28] = biological target: GalNAc(b1-4)Gal(b1-4)Glc
# Method in brief: as §1
# [29] = biological target: GalNAc(b1-4)GlcNAc
# Method in brief: as §1
# [30] = biological target: GalNAc(b1-4)GlcNAc(b1-2)Man(a1-3)[GalNAc(b1-4)GlcNAc(b1-2)Man(a1-6)]Man(b1-4)GlcNAc(b1-4)GlcNAc
# Method in brief: as §1
# [31] = biological target: GalNAc(b1-6)GalNAc
# Method in brief: as §1
# [32] = biological target: Glc(a1-4)Glc
# Method in brief: as §1
# [33] = biological target: Glc(a1-4)Glc(a1-4)Glc(a1-4)Glc
# Method in brief: as §1
# [34] = biological target: Glc(a1-6)Glc(a1-6)Glc
# Method in brief: as §1
# [35] = biological target: Glc(a1-6)Glc(a1-6)Glc(a1-6)Glc
# Method in brief: as §1
# [36] = biological target: Glc(b1-4)Glc
# Method in brief: as §1
# [37] = biological target: Glc(b1-6)Glc
# Method in brief: as §1
# [38] = biological target: GlcA(b1-3)Gal
# Method in brief: as §1
# [39] = biological target: GlcA(b1-3)GlcNAc
# Method in brief: as §1
# [40] = biological target: GlcA(b1-6)Gal
# Method in brief: as §1
# [41] = biological target: GlcNAc(a1-3)Gal(b1-4)GlcNAc
# Method in brief: as §1
# [42] = biological target: GlcNAc(a1-4)Gal(b1-3)GlcNAc
# Method in brief: as §1
# [43] = biological target: GlcNAc(a1-4)Gal(b1-4)GalNAc
# Method in brief: as §1
# [44] = biological target: GlcNAc(a1-4)Gal(b1-4)GlcNAc
# Method in brief: as §1
# [45] = biological target: GlcNAc(a1-4)Gal(b1-4)GlcNAc(b1-3)Gal(b1-4)Glc
# Method in brief: as §1
binder,measurement,setting,value
B1,glycan array binding signal (z-score),[1],-0.2
same,glycan array binding signal (z-score),[2],-0.242
same,glycan array binding signal (z-score),[3],-0.168
same,glycan array binding signal (z-score),[4],-0.239
same,glycan array binding signal (z-score),[5],-0.24
same,glycan array binding signal (z-score),[6],-0.234
same,glycan array binding signal (z-score),[7],-0.218
same,glycan array binding signal (z-score),[8],-0.242
same,glycan array binding signal (z-score),[9],-0.249
same,glycan array binding signal (z-score),[10],-0.245
same,glycan array binding signal (z-score),[11],-0.244
same,glycan array binding signal (z-score),[12],-0.245
same,glycan array binding signal (z-score),[13],-0.251
same,glycan array binding signal (z-score),[14],-0.244
same,glycan array binding signal (z-score),[15],-0.244
same,glycan array binding signal (z-score),[16],-0.247
same,glycan array binding signal (z-score),[17],-0.241
same,glycan array binding signal (z-score),[18],-0.234
same,glycan array binding signal (z-score),[19],-0.243
same,glycan array binding signal (z-score),[20],-0.239
same,glycan array binding signal (z-score),[21],-0.249
same,glycan array binding signal (z-score),[22],-0.245
same,glycan array binding signal (z-score),[23],-0.243
same,glycan array binding signal (z-score),[24],-0.245
same,glycan array binding signal (z-score),[25],-0.233
same,glycan array binding signal (z-score),[26],-0.251
same,glycan array binding signal (z-score),[27],-0.245
same,glycan array binding signal (z-score),[28],-0.247
same,glycan array binding signal (z-score),[29],-0.249
same,glycan array binding signal (z-score),[30],-0.246
same,glycan array binding signal (z-score),[31],-0.243
same,glycan array binding signal (z-score),[32],-0.251
same,glycan array binding signal (z-score),[33],-0.244
same,glycan array binding signal (z-score),[34],-0.246
same,glycan array binding signal (z-score),[35],-0.243
same,glycan array binding signal (z-score),[36],-0.251
same,glycan array binding signal (z-score),[37],-0.256
same,glycan array binding signal (z-score),[38],-0.251
same,glycan array binding signal (z-score),[39],-0.242
same,glycan array binding signal (z-score),[40],-0.254
same,glycan array binding signal (z-score),[41],-0.237
same,glycan array binding signal (z-score),[42],-0.249
same,glycan array binding signal (z-score),[43],-0.242
same,glycan array binding signal (z-score),[44],-0.247
same,glycan array binding signal (z-score),[45],-0.241
